This is an account of results in paper PMC7819943, “Rice protein-binding microarrays: a tool to detect cis-acting elements near promoter regions in rice”.

This is one part of the list.

The target of the assay is T1, OsWOX13 (Oryza sativa, UniProt Q5QMM3 1-267).
T1 sequence: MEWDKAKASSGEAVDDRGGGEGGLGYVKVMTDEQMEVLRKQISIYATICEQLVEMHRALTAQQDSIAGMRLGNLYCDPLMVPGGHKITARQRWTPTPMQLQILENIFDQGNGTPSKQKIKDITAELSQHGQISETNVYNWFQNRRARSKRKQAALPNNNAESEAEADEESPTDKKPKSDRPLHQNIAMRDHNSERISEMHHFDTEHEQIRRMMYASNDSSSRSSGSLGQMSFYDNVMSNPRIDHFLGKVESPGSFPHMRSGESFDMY
As to the kind of experiment: protein-binding microarray (RPBM); PBS, 2% BSA, 51.3 ng/ul salmon testes DNA, 50 uM zinc acetate, 200 nM TF, 25 C, 1 h; high values mean tight binding. The following applies: protein: recombinant; tags: N-terminal polyhistidine and DsRed monomer fusion (pET32a); label: CyDye5-dUTP incorporated in the synthesized complementary strand; 3' TTTTT single-stranded linker to array surface; dsDNA, one strand shown. In outline: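 Binding signal is defined as the fluorescence intensity of each feature in arbitrary units, read on an Axon 4000B scanner. Transcription factors with N-terminal polyhistidine and DsRed fusions came from E. coli BL21-CodonPlus and were purified on Ni–NTA. They were incubated at 200 nM for 1 h at 25 °C on a custom Agilent array that had been made double-stranded with Cy5-dUTP, with 50 µM zinc acetate present, and the array was washed.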
In the case of “AGTGATGTGACGATGATGTATATGGACCGTGTGTTCTCAACGGAGTCACCTAGTGCAG”, the binding signal was 7790 fluorescence intensity (a.u.).

As to “GCATGACTAATTTTGATAAGGTAAAGTTGTGTTTGGATTGCGGAGTCACCTAGTGCAG”, the binding signal was 23800 fluorescence intensity (a.u.).

For the sequence “GGGTCACCAATCATTATAAAGAATTAGCTAAAGGTTCTATCGGAGTCACCTAGTGCAG”, the binding signal is 10500 fluorescence intensity (a.u.).

As for “GCATCATTAGATTGTTATGATTGTGAGGCAACATCCAGTACGGAGTCACCTAGTGCAG”, the binding signal is 16400 fluorescence intensity (a.u.).

Turning to “TAAAATTGACTCTTATGGTATAGAAATTCTCATATTTACGCGGAGTCACCTAGTGCAG”, the binding signal is 16900 fluorescence intensity (a.u.).

“TATTGTAATCTAGATTATTGACCCAGATTACTATAAGTTGCGGAGTCACCTAGTGCAG”: the binding signal was 10500 fluorescence intensity (a.u.).

With “CTAATTAATTCAGTAGCAATTGCCCAAACTAAACTTTACGCGGAGTCACCTAGTGCAG”, the binding signal is 13400 fluorescence intensity (a.u.).

On to “TATAAATTCAATTTAGGTTTGGGAAAGATCTTAATGGTGTCGGAGTCACCTAGTGCAG”, for which the binding signal was 8210 fluorescence intensity (a.u.).

In the case of “AAAGCAATCACAGATTCATACCTTGATATAAACTCCTAAGCGGAGTCACCTAGTGCAG”, the binding signal was 7230 fluorescence intensity (a.u.).

On to “AAGCGATTTGAAATTTGATAGCAATAGTTTTGTGTGGTGCCGGAGTCACCTAGTGCAG”, for which the binding signal is 3590 fluorescence intensity (a.u.).

For “GTAAATAAATAATTACTTATGTACAATACTGTTATTCTGTCGGAGTCACCTAGTGCAG”, the binding signal is 14200 fluorescence intensity (a.u.).

With “AGTGACACTAATTAAACATATATGTTGTGATTTGCTCGCTCGGAGTCACCTAGTGCAG”, the binding signal is 39300 fluorescence intensity (a.u.).

For the sequence “CTTTAGTCTCTGACACTAATTTAGAGTATTAAATATAGACCGGAGTCACCTAGTGCAG”, the binding signal was 3810 fluorescence intensity (a.u.).

For “TTATAAATAATTTATAGTCAATTAATCATGCGCTGATGACCGGAGTCACCTAGTGCAG”, the binding signal was 48200 fluorescence intensity (a.u.).

Turning to “ATGAATTAATTTCATAACCCTGATTAGTCTCTTATCCTGTCGGAGTCACCTAGTGCAG”, the binding signal was 41400 fluorescence intensity (a.u.).

For “ATAATTTGAAATTTAAATTTAAACTGTTCAAACAAAGTCACGGAGTCACCTAGTGCAG”, the binding signal was 24700 fluorescence intensity (a.u.).

As for “TAGGAAATCACATCCATCAATAGCGTTGTCAATCCTTCGACGGAGTCACCTAGTGCAG”, the binding signal was 4050 fluorescence intensity (a.u.).

With “TACTTGTTGACTGGATTGGAGGATGGACGGTAGTCGGTTGCGGAGTCACCTAGTGCAG”, the binding signal was 13100 fluorescence intensity (a.u.).

Turning to “AGACGTAATTGGAATGGTAGTTTAAGGTGTTGTTTATGTACGGAGTCACCTAGTGCAG”, the binding signal was 29800 fluorescence intensity (a.u.).

Turning to “AAAATTGAATAACTCATCAAGATCTACAACTTTTATTTTGCGGAGTCACCTAGTGCAG”, the binding signal was 17000 fluorescence intensity (a.u.).

For “GTACAAAGTGATTGTGTCACGCGTAGATGACATATAGGCACGGAGTCACCTAGTGCAG”, the binding signal was 14700 fluorescence intensity (a.u.).

“CGTGATTTCCCTTCCCCTTCCCCTCCCTCCGCCGCATCCCCGGAGTCACCTAGTGCAG”: the binding signal is 16000 fluorescence intensity (a.u.).

Consider “GTGAATTGATTGATTATAACTTATAAGCAGCCTCCTAGGTCGGAGTCACCTAGTGCAG”, for which the binding signal is 52000 fluorescence intensity (a.u.).

As to “AGCATGATCAATAATAAGGTAATTTAGCTCCAATTATGTCCGGAGTCACCTAGTGCAG”, the binding signal is 7040 fluorescence intensity (a.u.).

Turning to “GGAATTGGTAACAGCAAGCTTAACAGAGAAAGGTAGTCGACGGAGTCACCTAGTGCAG”, the binding signal was 8350 fluorescence intensity (a.u.).

As to “ATATATATATATATATATATATATATATATATACATACTACGGAGTCACCTAGTGCAG”, the binding signal was 16900 fluorescence intensity (a.u.).

With “TTTTAATTTAATTTTAGTGTGAACTAAACACTGTCTAAAGCGGAGTCACCTAGTGCAG”, the binding signal is 21200 fluorescence intensity (a.u.).

Take “GTGTTAATTTACAACTCACTATTCTTTATATACGACGAGACGGAGTCACCTAGTGCAG”: the binding signal was 12000 fluorescence intensity (a.u.).

On to “CATAATTGCTCTTATTTTGTACCTCACTTTAAAACAAACGCGGAGTCACCTAGTGCAG”, for which the binding signal is 29000 fluorescence intensity (a.u.).

On to “GTAGATTAACTTAGTTAGCTCTCACCAAGTGTTATGTTAACGGAGTCACCTAGTGCAG”, for which the binding signal is 10500 fluorescence intensity (a.u.).

For the sequence “ATTCTGATTGGGCGAGACCCACCTCGTGGCCACTGTTGCACGGAGTCACCTAGTGCAG”, the binding signal is 40700 fluorescence intensity (a.u.).

As for “TTAAGCATAATTGTTCCATGATCTGGCAATATGGTGCTACCGGAGTCACCTAGTGCAG”, the binding signal was 9270 fluorescence intensity (a.u.).

As for “ATTAAAGATGATGAGTGATTGACGTTTTCTGCTCTGCCGACGGAGTCACCTAGTGCAG”, the binding signal was 47100 fluorescence intensity (a.u.).

On to “GAGAATAAATTAGAAACCAGAAATTTAAAAGCGCAACCTTCGGAGTCACCTAGTGCAG”, for which the binding signal is 4470 fluorescence intensity (a.u.).

Consider “TGCCTATCACTGATGACTATATATGCATCGGCCACAAGAGCGGAGTCACCTAGTGCAG”, for which the binding signal was 7710 fluorescence intensity (a.u.).

Consider “TATGATGATTAATGATATAATAATAAGTATGACGGACAATCGGAGTCACCTAGTGCAG”, for which the binding signal was 17700 fluorescence intensity (a.u.).

On to “CTAAGTAGAGAAACTAATTAATTAAGAAGCATCATATCCACGGAGTCACCTAGTGCAG”, for which the binding signal was 3600 fluorescence intensity (a.u.).

As for “GCTAACTTGAGATGATTAGACTCCTGATTGTAGCTCATGACGGAGTCACCTAGTGCAG”, the binding signal is 27100 fluorescence intensity (a.u.).

Turning to “CATGATGATAGTGATAGCAACTCAAGCAATACTAACGCACCGGAGTCACCTAGTGCAG”, the binding signal was 14700 fluorescence intensity (a.u.).

Regarding “TTTAACTGAACAAACAGGAAAATGTAAACTGATGAGGCCACGGAGTCACCTAGTGCAG”, the binding signal was 21700 fluorescence intensity (a.u.).

As for “TTTGATAATTTTATCAAAAGATGGTATGGTTCGATATTGTCGGAGTCACCTAGTGCAG”, the binding signal was 9140 fluorescence intensity (a.u.).

With “TGATAAATTTGATGTTTATATGTTAAATTATAGTAGTTTGCGGAGTCACCTAGTGCAG”, the binding signal is 17600 fluorescence intensity (a.u.).
